Test results as given in the supplement of paper PMC12462457.
Where a name gives a salt, the structure may show the parent alone. ± gives the standard deviation of the averaged measurements. Some of the results follow.

Test system: OVCAR8
Experiment: cell count relative to DMSO vehicle (fold change); OVCAR8 is a high-grade serous ovarian cancer line and CX-5461 an RNA polymerase I inhibitor; higher = more surviving senescent cells (less killing)
Details: senescence inducer: CX-5461 3 µM 48 h, then 6 d recovery (CX senescent), exposure time 24 h

| SMILES | cell count (compound dose 1 µM) | cell count (compound dose 5 µM) |
| --- | --- | --- |
| O=c1c(N=Nc2nccs2)c(-c2ccccc2)[nH]n1-c1nc(-c2ccccc2)cs1 | 1.1 ± 0.14 | 1.03 ± 0.24 |
| COc1cc(C[C@H]2C(=O)OC[C@@H]2Cc2ccc(OC)c(OC)c2)ccc1O [Arctigenin] | 1.17 ± 0.14 | 0.922 ± 0.24 |
| CO[C@H]1CC[C@H](N2C(=O)CNc3ncc(-c4ccc(C(C)(C)O)nc4)nc32)CC1 | 1.08 ± 0.031 | 1.13 ± 0.1 |
| COc1ccc(NS(=O)(=O)c2c(F)c(F)c(F)c(F)c2F)cc1F [Batabulin (sodium)] | 1.08 ± 0.1 | 1.17 ± 0.044 |
| COc1ccc(NS(=O)(=O)c2c(F)c(F)c(F)c(F)c2F)cc1F [Batabulin] | 1.14 ± 0.14 | 1.12 ± 0.03 |
| CC(=O)Cc1cc(=O)c2c(C)cc(O)c([C@@H]3O[C@H](CO)[C@@H](O)[C@H](O)[C@H]3O)c2o1 [Aloesin] | 1.01 ± 0.31 | 0.9 ± 0.29 |
| O=C(NC1CCNCC1)c1n[nH]cc1NC(=O)c1c(Cl)cccc1Cl | 1.09 ± 0.013 | 1.05 ± 0.024 |
| CC[C@@H](N)CNc1ccnc(-c2cc(-c3cnn(C)c3)ccc2O)n1 | 1.05 ± 0.11 | 0.858 ± 0.018 |
| O=C(O)/C=C/c1ccc(-c2ccc(O)c(C34CC5CC(CC(C5)C3)C4)c2)cc1 [Adarotene] | 0.999 ± 0.32 | 1.02 ± 0.26 |
| Oc1cccc(O)c1O [Pyrogallol] | 1.17 ± 0.14 | 1.11 ± 0.17 |
| COC1=CC(=O)C[C@@H](C)[C@]12Oc1c(Cl)c(OC)cc(OC)c1C2=O [Griseofulvin] | 1.08 ± 0.016 | 1.06 ± 0.017 |
| Cn1cc(-c2cnc(N)c3c(-c4ccc5c(c4)CCN5C(=O)Cc4ccccc4)csc23)cn1 | 1.1 ± 0.096 | 0.668 ± 0.037 |
| CC(C)(C)c1cc(/C=C(\C#N)C(N)=S)cc(C(C)(C)C)c1O [Tyrphostin AG 879] | 1.19 ± 0.24 | 1.15 ± 0.27 |
| COc1cccc(OCCCN)c1-c1cc(Nc2cnc(C#N)cn2)n[nH]1 [Prexasertib] | 0.614 ± 0.033 | 0.425 ± 0.016 |
| Fc1ccc(-n2cc(CCCCN3CCC4(CC3)OCc3ccccc34)c3ccccc32)cc1 [Siramesine (hydrochloride)] | 1.13 ± 0.21 | 1.42 ± 0.29 |
| CC(=O)Nc1ccc(C2=NNC(=O)C[C@H]2C)cc1 | 0.99 ± 0.21 | 1.13 ± 0.3 |
| N=C1S/C(=C\c2ccc(-c3ccc4c(c3)C(=O)NC4=O)o2)C(=O)N1c1ccc(Br)cc1 [Bioymifi] | 1.01 ± 0.14 | 1.01 ± 0.14 |
| COc1ccc(COc2cc3oc(=O)c4cc(C(C)O)ccc4c3cc2OC)cc1 (stereo not given) [Palomid 529 (P529)] | 1.19 ± 0.034 | 1.06 ± 0.045 |
| CC(C)(C)NC(=O)[C@@H]1CN(Cc2cccnc2)CCN1C[C@@H](O)C[C@@H](Cc1ccccc1)C(=O)N[C@H]1c2ccccc2C[C@H]1O [Indinavir (sulfate)] | 1.19 ± 0.11 | 1.05 ± 0.22 |
| COC(=O)Nc1nc2cc(C(=O)c3ccc(F)cc3)ccc2[nH]1 [Flubendazole] | 1.15 ± 0.067 | 1.01 ± 0.049 |
| CC[C@@H]1C(=O)N(C)c2cnc(Nc3ccc(C(=O)NC4CCN(C)CC4)cc3OC)nc2N1C1CCCC1 | 1.18 ± 0.082 | 1.15 ± 0.14 |
| CCCCC[C@H](O)CC(=O)CCc1ccc(O)c(OC)c1 [[6]-Gingerol] | 1.14 ± 0.3 | 1.026 ± 0.0035 |
| Fc1ccc(CNc2ncnc3ccc(F)cc23)cc1 [Spautin-1] | 1.04 ± 0.18 | 0.947 ± 0.23 |
| CCCCCCCC/C=C\CCCCCCCC(=O)O [Oleic acid] | 0.997 ± 0.27 | 1.14 ± 0.35 |
| CN1CCC(CNc2ccc3ncc(-c4cccc(OC(F)(F)F)c4)n3n2)CC1 [SGI-1776 free base] | 1.17 ± 0.084 | 1.12 ± 0.14 |

| SMILES | cell count (compound dose 1 µM) | cell count (compound dose 5 µM) |
| --- | --- | --- |
| COc1cc2c(cc1OC)[C@@H]1Cc3ccc(OC)c(OC)c3CN1CC2 | 1.17 ± 0.2 | 1.11 ± 0.088 |
| O=C(O)C[C@H](O)C[C@H](O)/C=C/c1c(C2CC2)nc2ccccc2c1-c1ccc(F)cc1 [Pitavastatin (Calcium)] | 0.905 ± 0.21 | 0.717 ± 0.14 |
| C[C@@H]1O[C@@H](OC[C@H]2O[C@@H](Oc3cc(O)c4c(c3)O[C@H](c3ccc(O)c(O)c3)CC4=O)[C@H](O)[C@@H](O)[C@@H]2O)[C@H](O)[C@H](O)[C@H]1O [Eriocitrin] | 1.06 ± 0.19 | 1.05 ± 0.065 |
| Cc1ccc(NCCN(C)CCNc2ccnc3cc(Cl)ccc23)c2c(=O)c3ccccc3sc12 | 0.916 ± 0.16 | 1.04 ± 0.041 |
| N#CCCCSC(=N)N [Kevetrin (hydrochloride)] | 1.1 ± 0.11 | 1.13 ± 0.089 |
| CCNC(=O)c1noc(-c2cc(C(C)C)c(O)cc2O)c1-c1ccc(CN2CCOCC2)cc1 [Luminespib] | 0.995 ± 0.035 | 0.871 ± 0.053 |
| NS(=O)(=O)Cc1noc2ccccc12 [Zonisamide] | 1.11 ± 0.29 | 1.15 ± 0.12 |
| CN(C)C(=O)c1cc2cnc(Nc3ccc(NC(=O)CCCCCCCN=C=S)cc3)nc2n1C1CCCC1 | 1.02 ± 0.14 | 0.709 ± 0.0014 |
| O=C1Nc2ccc(I)cc2/C1=C/c1cc(Br)c(O)c(Br)c1 | 1.07 ± 0.071 | 1.03 ± 0.27 |
| CON(C)C(=O)N1N=C(c2cc(F)ccc2F)S[C@@]1(CCCN)c1ccccc1 [Filanesib] | 0.981 ± 0.12 | 0.929 ± 0.22 |
| NC(=O)N1c2ccccc2CC(=O)c2ccccc21 | 1.03 ± 0.1 | 1.05 ± 0.087 |
| COC(=O)[C@]12OC[C@]34[C@H]([C@@H](O)[C@@H]1O)[C@@]1(C)CC(=O)C(O)=C(C)[C@@H]1C[C@H]3OC(=O)[C@H](OC(=O)C=C(C)C)[C@@H]24 [Brusatol] | 0.856 ± 0.2 | 0.586 ± 0.13 |
| O=c1[nH]c(=O)n([C@H]2C[C@H](O)[C@@H](CO)O2)cc1C(F)(F)F | 1.01 ± 0.15 | 0.947 ± 0.25 |
| COC(=O)c1ccc(O)c(O)c1 [Methyl 3,4-dihydroxybenzoate] | 1.18 ± 0.22 | 1.21 ± 0.23 |
| COc1ccc2c3c1O[C@H]1C[C@@H](O)C=C[C@@]31CCN(C)C2 [Galanthamine] | 1.02 ± 0.21 | 1.04 ± 0.053 |
| O=C(NNc1ccccc1)c1ccncc1 [PluriSIn 1] | 1.16 ± 0.15 | 0.993 ± 0.12 |
| COc1cc(OC)cc(N2CCN(C(=O)Nc3nc4cc(F)ccc4nc3OC)CC2)c1 [Supinoxin] | 1.15 ± 0.083 | 1.201 ± 0.0085 |
| COc1cc2c(cc1OC)[C@@H]1C(=O)c3ccc4c(c3O[C@@H]1CO2)C=CC(C)(C)O4 [Deguelin] | 1.14 ± 0.17 | 1.1 ± 0.25 |
| C=C1CCC[C@]2(C)C[C@@H]3OC(=O)C(C)=C3C[C@@H]12 [Atractylenolide II] | 1.02 ± 0.11 | 0.988 ± 0.14 |
| C=C(C)[C@@H]1CC[C@]2(C)CC[C@]3(C)[C@H](CC[C@@H]4[C@@]5(C)CC[C@H](O)C(C)(C)[C@@H]5CC[C@]43C)[C@@H]12 | 1.05 ± 0.21 | 1.13 ± 0.17 |
| Oc1cc(O)cc(/C=C/c2ccc(O)c(O)c2)c1 [Piceatannol] | 1.21 ± 0.1 | 1.31 ± 0.18 |
| CCN1CCN(c2ccc(Nc3cc(N(C)C(=O)Nc4c(Cl)c(OC)cc(OC)c4Cl)ncn3)cc2)CC1 [Infigratinib] | 1.19 ± 0.25 | 1.17 ± 0.25 |
| CC[C@@]1(O)C(=O)OCc2c1cc1n(c2=O)Cc2cc3c(CN(C)C)c(O)ccc3nc2-1 [Topotecan (Hydrochloride)] | 0.807 ± 0.025 | 1.02 ± 0.057 |
| O=c1[nH]c(=S)[nH]c2nc(-c3ccccc3)c(-c3ccccc3)nc12 [SCR7 pyrazine] | 0.987 ± 0.15 | 0.978 ± 0.14 |
| COc1cc2ncnc(Nc3ccc(O)c(Br)c3)c2cc1OC | 1.11 ± 0.069 | 1.07 ± 0.091 |

| SMILES | cell count (compound dose 1 µM) | cell count (compound dose 5 µM) |
| --- | --- | --- |
| C[C@@H]1O[C@@H](O[C@H]2C(=O)c3c(O)cc(O)cc3O[C@@H]2c2ccc(O)c(O)c2)[C@H](O)[C@H](O)[C@H]1O [Astilbin] | 1.06 ± 0.18 | 1.07 ± 0.098 |
| CC[C@H](C)C(=O)O[C@H]1C[C@H](O)C=C2C=C[C@H](C)[C@H](CC[C@@H](O)C[C@@H](O)CC(=O)O)[C@H]21 [Pravastatin (sodium)] | 1.1 ± 0.17 | 1.18 ± 0.27 |
| Cc1cc([N+](=O)[O-])c(NS(=O)(=O)c2cccc(C(=O)O)c2)cc1-c1cccnc1 [Alofanib] | 1.05 ± 0.093 | 1.02 ± 0.044 |
| O=S1(=O)CCN(CN2CCS(=O)(=O)NC2)CN1 [Taurolidine] | 1.16 ± 0.12 | 1.1 ± 0.05 |
| Cc1nc(C)c(C)nc1C [Tetramethylpyrazine] | 1.03 ± 0.07 | 1.15 ± 0.16 |
| Cc1ccc(S(=O)(=O)/C=C/C#N)cc1 | 1.08 ± 0.14 | 0.389 ± 0.41 |
| Nc1ccccc1NC(=O)c1ccc(CNc2nccc(-c3cccnc3)n2)cc1 [Mocetinostat (MGCD0103)] | 1.16 ± 0.039 | 1.232 ± 0.0085 |
| O=C1C(O)=C(O)C(=O)C(O)=C1O | 1.1 ± 0.15 | 1.12 ± 0.058 |
| Cc1ccc(C(=O)N(CCCN)[C@@H](c2nc3cc(Cl)ccc3c(=O)n2Cc2ccccc2)C(C)C)cc1 [Ispinesib] | 1.1 ± 0.011 | 1.07 ± 0.14 |
| C[C@@H]1O[C@@H](O[C@H]2[C@H](O[C@H]3CC[C@@]4(C)[C@@H](CC[C@]5(C)[C@@H]4CC=C4[C@@H]6CC(C)(C)CC[C@]6(C(=O)O)CC[C@]45C)[C@]3(C)CO)OC[C@H](O[C@@H]3O[C@H](CO)[C@@H](O)[C@H](O)[C@H]3O)[C@@H]2O)[C@H](O)[C@H](O)[C@H]1O [Pulsatilla saponin D] | 1.09 ± 0.089 | 0.004 |
| CC(C)c1cnn2c(NCc3ccccc3)cc(NC[C@H]3CCNC[C@@H]3O)nc12 [Samuraciclib (hydrochloride)] | 0.95 ± 0.011 | 1.13 ± 0.12 |
| C=C1CCC[C@]2(C)C[C@]3(O)OC(=O)C(C)=C3C[C@@H]12 [Atractylenolide III] | 1.06 ± 0.22 | 0.933 ± 0.18 |
| O=c1c(O[C@@H]2O[C@@H](CO)[C@H](O)[C@H]2O)c(-c2ccc(O)c(O)c2)oc2cc(O)cc(O)c12 [Avicularin] | 1.23 ± 0.29 | 1.13 ± 0.36 |
| COc1cc2ncnc(Nc3ccc(F)c(Cl)c3)c2cc1NC(=O)/C=C/CN1CCCCC1 | 0.964 ± 0.088 | 0.834 ± 0.018 |
| CC(=O)Oc1cc(C)c(OC(C)=O)c2ccccc12 [Vitamin K4] | 1.11 ± 0.26 | 1.1 ± 0.28 |
| COCCCOc1ccnc(C[S+]([O-])c2nc3ccccc3[nH]2)c1C (stereo not given) [Rabeprazole (sodium)] | 1.126 ± 0.0028 | 1.08 ± 0.14 |
| CC(C)=CCC/C(C)=C\CO [Nerol] | 0.61 ± 0.024 | 0.492 ± 0.052 |
| COc1nc(C)cnc1NS(=O)(=O)c1cccnc1-c1ccc(-c2nnco2)cc1 [Zibotentan] | 1.05 ± 0.23 | 1.03 ± 0.05 |
| O=C(NCc1ccc2c(c1)OCO2)c1c(Cl)cccc1Cl | 1.13 ± 0.17 | 1.13 ± 0.18 |
| Nc1ccccc1NC(=O)CCCCCCC(=O)Nc1ccccc1 | 1.24 ± 0.19 | 1.24 ± 0.23 |
| NC(=O)Nc1sc(-c2ccc(F)cc2)cc1C(N)=O | 1.181 ± 0.0057 | 1.08 ± 0.019 |
| COC(=O)CCCCC(=O)NCCN1C(=O)c2cccc3c(Sc4ccc(Br)cc4)ccc(c23)C1=O | 1.01 ± 0.17 | 1.01 ± 0.097 |
| COc1cc2c(cc1OC)-c1c(C)c3ccc(OC)c(OC)c3c[n+]1CC2 [Dehydrocorydaline] | 1.2 ± 0.15 | 1.16 ± 0.22 |
| Cc1nn(C)c(COc2ccc(N3CCN(S(=O)(=O)N(C)C)CC3)cc2)c1-c1cccc2c(CCCOc3cccc4ccccc34)c(C(=O)O)n(CCN3CCOCC3)c12 | 1.16 ± 0.21 | 1.21 ± 0.35 |
| C[C@@H]1O[C@@H](OC[C@H]2O[C@@H](Oc3c(-c4ccc(O)c(O)c4)oc4cc(O)cc(O)c4c3=O)[C@H](O)[C@@H](O)[C@@H]2O)[C@H](O)[C@H](O)[C@H]1O [Rutin] | 1.06 ± 0.1 | 1.2 ± 0.24 |
